Source: PubChem BioAssay AID463173 (ICCB-Longwood Screening Facility, Harvard Medical School, 2010)
Among all 52,000 compounds or so, about 4,300 (8.3%) were called active. Cut-off read from the data, not from the text of the source: active = survival mostly below about 52% (no sharp cut-off); inactive = mostly above about 56%. This is one part of the list.

Test system: DeltatarO mutant
Assay: S. aureus survival, RN4220 and DeltatarO strains – OD600, teichoic acid synthesis inhibitors, primary screen (AID 463173)
Conditions: S. aureus RN4220 wild type/DeltatarO growth, OD600, 18 h, active compounds read low, screened at 18.75 µg/mL (by protocol)

For CCCNC(=O)CN1C(=O)c2c(c3ccccc3n2C)C1c1ccc(OC)cc1 (centres undefined), which survival is on record?
Its survival is inactive: 71%.

CCc1ccc(S(=O)(=O)c2nnn3c2nc(N2CCC(C(N)=O)CC2)c2cc(Cl)ccc23)cc1 was tested. Which survival did it give?
The survival was inactive: 69%.

For Cc1c(C(=O)Nc2cccc(C#N)c2)sc2nc3n(c(=O)c12)CCCCC3, which survival is on record?
Its survival is inactive: 67%.

How did the survival turn out when O=C(COc1ccc(Cl)cc1)Nc1ccc(-c2nc3cc(Cl)ccc3o2)c(O)c1 was run?
Its survival is inactive: 75%.

O=S(=O)(c1ccc(Cl)c2ccccc12)N1CCCC1 was tested. Which survival did it give?
Its survival is inactive: 86%.

With CCc1cccc(C)c1NC(=O)CN1C(=O)c2ccccc2Sc2ncccc21 as the molecule, how does the survival read?
Its survival is inactive: 90%.

For COc1ccc(NS(=O)(=O)c2c(C)nc3scc(C)n3c2=O)cc1, which survival is on record?
The survival was inactive: 90%.

With O=C(Nc1ccc2nc(SCC(=O)N3CCOCC3)sc2c1)c1cccc(F)c1 as the molecule, how does the survival read?
The survival was inactive: 86%.

For O=C(NCc1cccnc1)c1c[nH]c2cc3c(cc2c1=O)OCCO3, which survival is on record?
The survival was inactive: 100%.

For CCCCNC(=O)CCSc1nc(-c2ccc3c(c2)OCO3)cc(C(F)(F)F)n1, which survival is on record?
The survival was inactive: 80%.

Which survival does the source give for CCOC(=O)N1CCN(S(=O)(=O)N2CCCC(C(=O)NCc3ccc(OC)cc3OC)C2)CC1 (centres undefined) here?
Its survival is inactive: 90%.

Which survival does the source give for O=c1oc2ccc(Cl)cc2cc1-c1cn2c(n1)sc1ccccc12 here?
Its survival is inactive: 119%.

How did the survival turn out when COc1cccc(NC(=O)CSC2=Nc3ccccc3C3=NC(CC(=O)NCc4ccccc4OC)C(=O)N23)c1 (centres undefined) was run?
Its survival is inactive: 129%.

How did the survival turn out when Clc1ccccc1-c1nnc(SCc2nc(-c3ccccc3)no2)n1-c1ccccc1 was run?
Its survival is inactive: 52%.

How did the survival turn out when O=C(NCCc1ccc(Cl)cc1)c1ccc(CSCc2ccc(Cl)cc2)o1 was run?
The survival was inactive: 83%.

CCOc1ccc(NC(=O)CCC(=O)N2CCSc3ccccc32)cc1 was tested. Which survival did it give?
Its survival is inactive: 75%.

How did the survival turn out when CCCC(=O)n1nc(-c2cccnc2)nc1NCc1ccccc1 was run?
The survival was inactive: 81%.

How did the survival turn out when CCc1ccccc1NC(=O)Cn1c(=O)n(CCc2ccccc2)c(=O)c2ccccc21 was run?
The survival was inactive: 89%.

How did the survival turn out when CCC(=O)N1CCc2cc(Br)cc(S(=O)(=O)N3CCCC(C(=O)Nc4ccc(OC)cc4OC)C3)c21 (centres undefined) was run?
Its survival is inactive: 65%.

For CCc1ccc(S(=O)(=O)c2nnn3c2nc(NC(C)C)c2cc(Cl)ccc23)cc1, which survival is on record?
Its survival is inactive: 92%.

For CCOC(=O)c1cc2sc(C)cc2n1CC(=O)N1CCCCC1C (centres undefined), which survival is on record?
The survival was inactive: 96%.

For CC12CN3CC(c4ccccc4)(CN(C1)C3c1ccc(Cl)cc1)C2=O (centres undefined), which survival is on record?
The survival was inactive: 89%.

Which survival does the source give for CC(=O)c1cc(-c2ccccc2)n(CCC(=O)NC2CCCCC2)c1C here?
The survival was inactive: 67%.

With COc1ccccc1CNC(=O)c1ccc(CS(=O)c2ccccc2Cl)o1 (centres undefined) as the molecule, how does the survival read?
The survival was inactive: 80%.

For COC(=O)c1scc(-c2ccccc2)c1S(=O)(=O)Nc1ccc(C)c(Cl)c1, which survival is on record?
Its survival is inactive: 85%.

How did the survival turn out when CCOc1ccc(NC(=O)c2c(NCc3cccs3)sc3c2CCCCC3)cc1 was run?
Its survival is inactive: 74%.

For Cc1cccc(OCC(=O)N(Cc2ccc(N(C)C)cc2)Cc2ccco2)c1C, which survival is on record?
Its survival is active: 42%.

Which survival does the source give for COc1ccc(C2C=C(c3ccccc3)Nc3nc(NC(=O)/C=C/c4ccccc4OC)nn32)cc1 (centres undefined) here?
The survival was active: 52%.

How did the survival turn out when Cc1ccnc2nc(NC(=O)c3ccccc3Cl)nn12 was run?
The survival was inactive: 86%.

Which survival does the source give for CCc1ccc2[nH]c(=O)c(CN(Cc3ccco3)C(=O)c3ccccc3)cc2c1 here?
Its survival is inactive: 101%.

How did the survival turn out when CC(C)Oc1ccc(CNC(=O)c2cccc(NC(=O)c3nsc4ccccc34)c2)cc1 was run?
The survival was inactive: 78%.

With Cc1cc(C)cc(NC(=O)N2CCC(N3CCN(Cc4ccccc4)C(=O)C3=O)CC2)c1 as the molecule, how does the survival read?
The survival was inactive: 77%.

Which survival does the source give for O=C(Nc1ccc(C(=O)OCc2cc(=O)n3ccsc3n2)cc1)c1cccc(F)c1 here?
Its survival is inactive: 102%.

For CCOc1ccc(CC(=O)Nc2c(C(=O)c3ccc(F)cc3)oc3ccc(Cl)cc23)cc1OCC, which survival is on record?
The survival was inactive: 83%.

Nc1cccc(CN2CCCC2)c1 was tested. Which survival did it give?
The survival was inactive: 101%.

With COc1ccc(OC)c(CNC(=O)C2CCN(S(=O)(=O)c3ccc4[nH]c(=O)oc4c3)CC2)c1 as the molecule, how does the survival read?
Its survival is inactive: 88%.

How did the survival turn out when COc1ccc(NC(=O)C(=O)NCc2ccco2)c(OC)c1 was run?
Its survival is inactive: 161%.

COc1ccc(N2CCN(c3oc(/C=C/c4ccccc4OC)nc3C#N)CC2)cc1 was tested. Which survival did it give?
Its survival is inactive: 64%.

Which survival does the source give for Cc1noc2ncnc(NCc3ccc(Cl)cc3)c12 here?
The survival was inactive: 116%.

Which survival does the source give for Cc1cc(NC(=O)C2CCCN(S(=O)(=O)c3cn(C)cn3)C2)ccc1Br (centres undefined) here?
The survival was inactive: 102%.

With Cc1ccc(-c2cc(NC(=O)C(C)Oc3ccccc3F)on2)cc1 (centres undefined) as the molecule, how does the survival read?
The survival was active: 33%.

With CN(C)c1ccc(C(=O)Nc2ccc(-c3nc4ccccc4o3)cc2)cc1 as the molecule, how does the survival read?
Its survival is inactive: 89%.

With CCOC(=O)c1ccc(-c2ccc(/C=C(\C#N)C(=O)NCc3cccs3)o2)cc1 as the molecule, how does the survival read?
Its survival is inactive: 75%.

With CC(C)NC(=O)CSc1nc2ccccc2n1CC(=O)NC(C)C as the molecule, how does the survival read?
Its survival is inactive: 96%.

Cc1ccc(CNC(=O)c2c[nH]n3c(=O)c(Cc4ccc(F)cc4Cl)c(C)nc23)cc1 was tested. Which survival did it give?
Its survival is active: -13%.

Which survival does the source give for CCNC(=S)N1CCC(n2cnc3ccccc32)CC1 here?
The survival was inactive: 95%.

For Cn1c(C(=O)N2CCC(C(=O)N3CCN(c4ccccc4)CC3)CC2)cc2sccc21, which survival is on record?
Its survival is inactive: 64%.

Which survival does the source give for CN1CCN(S(=O)(=O)c2cccc(S(=O)(=O)c3ccc(Cl)c(Cl)c3)c2)CC1 here?
The survival was inactive: 102%.

How did the survival turn out when COc1ccc(N2Cc3cccc(C(=O)Nc4cccc(F)c4)c3C2=O)cc1 was run?
Its survival is inactive: 71%.

With CCOc1ccc(S(=O)(=O)N(CC(=O)NCCSc2ccc(C)cc2)c2ccccc2)cc1 as the molecule, how does the survival read?
Its survival is inactive: 76%.

How did the survival turn out when Cc1ccc(NC(=O)N2CCN(c3ccc(Cl)c(Cl)c3)CC2)cc1 was run?
Its survival is inactive: 102%.

Which survival does the source give for CCc1nnc(SCC(=O)Nc2cc(OC)ccc2OC)nc1CC here?
Its survival is inactive: 74%.

With CCN(Cc1ccccc1)C(=O)c1cc2c(=O)[nH]c3ccc(C)cc3c2s1 as the molecule, how does the survival read?
The survival was inactive: 49%.

How did the survival turn out when Cc1ccc(CCNC(=O)c2cc3n(n2)CCCN(Cc2ccc(C)cc2)C3=O)cc1 was run?
Its survival is inactive: 55%.

For COC(=O)c1c(NC(=O)c2cccs2)sc2c1C(C(=O)OC)CC2 (centres undefined), which survival is on record?
Its survival is inactive: 94%.

For Cc1ccc2c(c1)-c1onc(C(=O)N3CCN(c4cc(Cl)ccc4C)CC3)c1CO2, which survival is on record?
Its survival is active: 57%.

CCC(=O)N1CCc2cc(CNC(=O)Cc3ccc(F)cc3)ccc21 was tested. Which survival did it give?
The survival was inactive: 87%.

How did the survival turn out when CCOc1cccc(C(=O)Nc2ccc(Cl)cn2)c1 was run?
The survival was inactive: 72%.

With CCOc1ccc(-c2nnc(SCC(=O)Nc3ccc(C)cc3Cl)o2)cc1 as the molecule, how does the survival read?
Its survival is inactive: 101%.

CC1Cc2ccccc2N1S(=O)(=O)c1nnc(NC(=O)c2cccc(F)c2)s1 (centres undefined) was tested. Which survival did it give?
The survival was active: 6%.

For O=C(NC1CCCC1)C(c1ccsc1)N(C(=O)Cc1cccs1)c1ccccc1 (centres undefined), which survival is on record?
The survival was inactive: 86%.

Which survival does the source give for Cc1ccc(NC(=O)c2cc(S(=O)(=O)NC3CCCCC3)ccc2F)cc1Cl here?
The survival was active: -5%.

For CCC(=O)N1CCc2cc(CNC(=O)c3ccc(OC)cc3)ccc21, which survival is on record?
The survival was inactive: 122%.

For COc1ccc(-c2nc(CN3CCC(C(=O)NCCc4ccccc4)CC3)c(C)o2)cc1OC, which survival is on record?
Its survival is inactive: 86%.

With CCCCn1cc(S(=O)(=O)c2ccc(C)c(C)c2)c(=O)c2cc(F)c(N(CC)CC)cc21 as the molecule, how does the survival read?
The survival was inactive: 89%.

Cc1ccc(NC(=O)CSc2nc(=O)n(Cc3ccco3)c3c2CCC3)cc1F was tested. Which survival did it give?
The survival was inactive: 81%.

For Cn1c(=O)c(=O)n(C)c2cc(N3CCCC3)c(NC(=O)c3ccccc3F)cc21, which survival is on record?
The survival was inactive: 98%.

With O=C(Nc1sc2c(c1C(=O)Nc1cccc(Cl)c1)CCCC2)c1cccs1 as the molecule, how does the survival read?
Its survival is inactive: 159%.

With COc1ccc2[nH]cc(CCNC(=O)c3cnn(-c4ccc(C)cc4)c3C3CCN(C(=O)OC(C)(C)C)CC3)c2c1 as the molecule, how does the survival read?
The survival was inactive: 90%.

COCCN1C(=O)c2oc3ccc(C)cc3c(=O)c2C12C(=O)N(C)c1ccccc12 (centres undefined) was tested. Which survival did it give?
The survival was active: 45%.

COC(=O)c1cc2oc3ccccc3c2n1Cc1nc(-c2cccc(C)c2)oc1C was tested. Which survival did it give?
The survival was inactive: 71%.

CC(C)N(Cc1ccccc1)C(=O)C1CCCN(c2ncnc3onc(-c4ccc(F)cc4)c23)C1 (centres undefined) was tested. Which survival did it give?
Its survival is inactive: 94%.

How did the survival turn out when COc1ccccc1CNC(=O)c1cnc(SC)nc1C was run?
Its survival is inactive: 98%.

For COCC(=O)Nc1cccc(-c2nc3cccnc3s2)c1, which survival is on record?
The survival was inactive: 68%.

How did the survival turn out when Cc1c(C(=O)N2CCC(C)CC2)c(S(=O)(=O)Nc2cccc(C(F)(F)F)c2)c(C)n1C was run?
Its survival is inactive: 94%.

How did the survival turn out when COc1ccc(OC)c(CCNC(=O)c2cnn(-c3ccc(C)cc3C)c2C2CCN(C(=O)OC(C)(C)C)CC2)c1 was run?
The survival was inactive: 98%.

Which survival does the source give for CCOC(=O)c1c(NC(=O)COc2ccc(C)cc2C(C)(C)C)sc2c1CCC(C)C2 (centres undefined) here?
The survival was inactive: 55%.

For Cc1ccc(Cn2c(CNC(=O)Cc3cccc(C)c3)nc3cccnc32)cc1, which survival is on record?
The survival was inactive: 94%.

With CC(=O)c1ccc(N2CCN(S(=O)(=O)c3cc(-c4noc(C)n4)ccc3C)CC2)cc1 as the molecule, how does the survival read?
Its survival is inactive: 118%.

How did the survival turn out when COc1ccc(CNC(=O)Cn2c(=O)ccc3cc(S(=O)(=O)N4CCCC4)ccc32)cc1 was run?
The survival was inactive: 115%.

Cc1nn(S(=O)(=O)c2ccc(C(C)(C)C)cc2)c(C)c1S(=O)(=O)N1CCC(C)CC1 was tested. Which survival did it give?
The survival was inactive: 74%.

Which survival does the source give for Cc1ccc(-c2nnc(Nc3ccc(F)cc3)c3ccccc23)cc1S(=O)(=O)N1CCN(C)CC1 here?
Its survival is inactive: 94%.

With CC(C)CC(NC(=O)c1ccco1)C(=O)O (centres undefined) as the molecule, how does the survival read?
Its survival is inactive: 71%.

For O=C(c1ccccc1Cl)N1CCCCC1CCN1CCOCC1 (centres undefined), which survival is on record?
The survival was inactive: 86%.

How did the survival turn out when CCOc1cccc2c1Oc1nc(-c3ccccc3)nc(SCC(=O)Nc3ccc(F)cc3)c1C2 was run?
The survival was inactive: 81%.

Which survival does the source give for CCOC(=O)c1ccc(N2C(=O)c3[nH]nc(-c4ccc(OCC)cc4)c3C2c2cccs2)cc1 (centres undefined) here?
The survival was inactive: 79%.

How did the survival turn out when CC(C)OC(=O)CSc1nnc(-c2ccccc2)n1Cc1ccco1 was run?
The survival was inactive: 87%.

With Cc1cc(-c2ccc(S(=O)(=O)N3CCN(c4ccc(Cl)cc4)CC3)s2)on1 as the molecule, how does the survival read?
Its survival is inactive: 124%.

Which survival does the source give for COc1ccc(NC(=O)c2sc3nc4c(c(-c5ccc(OC)cc5)c3c2N)C(=O)CC(C)(C)C4)cc1 here?
The survival was inactive: 61%.
